The IC50 comes from the fitted curve, where viability falls to half of the control; a limit (>, <) means that the fit lies beyond the doses tested. For AUC the same curve is integrated over the 256-fold range of doses and scaled to a fraction: 1 means no effect, lower means more sensitive. An inferred top dose was calculated from the reported fits. For part of these data: An entry number marks a drug with two screens in the source, which often give different values.
What was measured:
Test in all cases: Viability of human cancer cell lines after 72 h of drug (GDSC screen)
[1] = compound: Cn1ncnc1[C@H]1c2n[nH]c(=O)c3cc(F)cc(c23)N[C@@H]1c1ccc(F)cc1 [BMN-673]; details: top dose 10 µM; top dose inferred
Description: (§1)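 Human cancer cell lines in 384-well plates, medium with 10% serum, drug for 72 h over a 256-fold dose range (nine 2-fold or five 4-fold steps up to the top dose). Adherent lines were fixed and stained with the nucleic acid dye Syto60, suspension lines read with resazurin; signal relative to control wells, capped at 0 and 100%. One two-parameter sigmoid per drug and line, fitted in a mixed model over all curves with the slope shared within a line.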

[2] = compound: NS(=O)(=O)OC[C@@H]1C[C@@H](n2ccc3c(N[C@H]4CCc5ccccc54)ncnc32)C[C@@H]1O [MLN4924]; details: top dose 1 µM; top dose inferred
Description: as §1

[3] = compound: Cc1cc([C@@H](C)Nc2ccccc2C(=O)O)c2nc(N3CCOCC3)cc(=O)n2c1 [AZD6482]
Description: as §1

[4] = top dose 5 µM, screen: GDSC drug entry 1066, top dose inferred
[5] = top dose 5.12 µM, screen: GDSC drug entry 156

Cell Line | AUC [1] | IC50 [1] [nM] | AUC [2] | IC50 [2] [nM] | AUC [3, 4] | IC50 [3, 4] [nM] | AUC [3, 5] | IC50 [3, 5] [nM]
JAR (urogenital system, adherent) | 0.903 | > 10000 | 0.953 | > 1000 | 0.867 | 4340 | 0.988 | > 5120
JHH-2 (liver, adherent) | 0.89 | > 10000 | 0.926 | > 1000 | 0.517 | 350 | 0.964 | > 5120
JHH-4 (liver, adherent) | 0.903 | > 10000 | 0.868 | 904 | 0.831 | 3160 | 0.864 | 4460
JHH-6 (liver, adherent) | 0.839 | 6970 | 0.847 | 752 | 0.869 | 4730 | 0.919 | > 5120
JHH-7 (liver, adherent) | 0.923 | > 10000 | 0.954 | > 1000 | 0.921 | > 5000 | 0.963 | > 5120
JHOS-4 (ovary, adherent) | 0.814 | 8850 | 0.973 | > 1000 | 0.945 | > 5000 | – | –
JM1 (B-cell lymphoma, suspension) | 0.564 | 910 | 0.831 | 512 | 0.935 | > 5000 | 0.968 | > 5120
JSC-1 (B-cell lymphoma, suspension) | 0.598 | 1160 | 0.865 | 870 | 0.984 | > 5000 | 0.977 | > 5120
JVM-2 (lymphoid neoplasm, suspension) | 0.61 | 1350 | 0.761 | 432 | 0.748 | 1940 | 0.893 | > 5120
JVM-3 (lymphoid neoplasm, suspension) | 0.644 | 1570 | 0.677 | 197 | 0.869 | 4720 | 0.987 | > 5120
JiyoyeP-2003 (Burkitt lymphoma, suspension) | 0.954 | > 10000 | 0.697 | 207 | 0.984 | > 5000 | 0.931 | > 5120
KALS-1 (glioma, adherent) | 0.851 | > 10000 | 0.738 | 394 | 0.846 | > 5000 | 0.748 | 2200
KARPAS-45 (lymphoblastic leukaemia, suspension) | 0.991 | > 10000 | 0.969 | > 1000 | 0.712 | 1100 | 0.834 | 2580
KARPAS-231 (B-cell leukaemia, suspension) | 0.677 | 1710 | 0.97 | > 1000 | 0.603 | 558 | 0.732 | 1210
KARPAS-299 (anaplastic large cell lymphoma, suspension) | 0.811 | 4230 | 0.961 | > 1000 | 0.964 | > 5000 | 0.992 | > 5120
KARPAS-422 (B-cell lymphoma, suspension) | 0.985 | > 10000 | 0.987 | > 1000 | 0.653 | 822 | 0.69 | 1080

Cell Line | AUC [1] | IC50 [1] [nM] | AUC [2] | IC50 [2] [nM] | AUC [3, 4] | IC50 [3, 4] [nM] | AUC [3, 5] | IC50 [3, 5] [nM]
KARPAS-620 (haematopoietic neoplasm, suspension) | 0.987 | > 10000 | 0.99 | > 1000 | 0.942 | > 5000 | 0.814 | 2310
KARPAS-1106P (B-cell lymphoma, suspension) | 0.838 | 5130 | 0.983 | > 1000 | 0.729 | 1210 | – | –
KASUMI-1 (acute myeloid leukaemia, suspension) | 0.976 | > 10000 | 0.714 | 253 | 0.691 | 1080 | 0.756 | 1760
KE-37 (lymphoblastic leukaemia, suspension) | 0.871 | 5860 | 0.853 | 511 | 0.938 | > 5000 | 0.958 | > 5120
KLE (endometrium, adherent) | 0.954 | > 10000 | 0.966 | > 1000 | 0.782 | 3480 | 0.865 | > 5120
KM-H2 (Hodgkin lymphoma, suspension) | 0.986 | > 10000 | 0.986 | > 1000 | 0.975 | > 5000 | 0.973 | > 5120
KMOE-2 (acute myeloid leukaemia, suspension) | 0.984 | > 10000 | 0.935 | > 1000 | 0.825 | 2570 | 0.95 | > 5120
KMS-11 (myeloma, suspension) | 0.959 | > 10000 | 0.838 | 539 | 0.97 | > 5000 | – | –
KNS-62 (lung squamous cell carcinoma, adherent) | 0.947 | > 10000 | 0.765 | 538 | 0.925 | > 5000 | – | –
KNS-81-FD (glioma, adherent) | 0.87 | > 10000 | 0.803 | 720 | 0.798 | 3440 | 0.926 | > 5120
KON (head and neck, adherent) | 0.573 | 988 | 0.516 | 69 | 0.973 | > 5000 | 0.899 | > 5120
KOPN-8 (B-cell leukaemia, suspension) | 0.468 | 517 | 0.913 | > 1000 | 0.93 | > 5000 | 0.932 | > 5120
KOSC-2 (head and neck, adherent) | 0.697 | 2310 | 0.825 | 638 | 0.928 | > 5000 | 0.886 | > 5120
KP-1N (pancreas, adherent) | 0.844 | 7630 | 0.956 | > 1000 | 0.986 | > 5000 | 0.928 | > 5120
KP-2 (pancreas, adherent) | 0.962 | > 10000 | 0.877 | > 1000 | 0.965 | > 5000 | 0.945 | > 5120

Reference: the supplement of paper PMC4967469
